{"source": "paper PMC10726135", "note": "The list shows a part of the results. At the low end of the ranking the order means little. The protein was read in a cell extract, so binding may be indirect.", "data": [{"molecular_target": "T1, HNF4alpha2 (COS-7 nuclear extract) (UniProt P41235)", "T1 sequence": "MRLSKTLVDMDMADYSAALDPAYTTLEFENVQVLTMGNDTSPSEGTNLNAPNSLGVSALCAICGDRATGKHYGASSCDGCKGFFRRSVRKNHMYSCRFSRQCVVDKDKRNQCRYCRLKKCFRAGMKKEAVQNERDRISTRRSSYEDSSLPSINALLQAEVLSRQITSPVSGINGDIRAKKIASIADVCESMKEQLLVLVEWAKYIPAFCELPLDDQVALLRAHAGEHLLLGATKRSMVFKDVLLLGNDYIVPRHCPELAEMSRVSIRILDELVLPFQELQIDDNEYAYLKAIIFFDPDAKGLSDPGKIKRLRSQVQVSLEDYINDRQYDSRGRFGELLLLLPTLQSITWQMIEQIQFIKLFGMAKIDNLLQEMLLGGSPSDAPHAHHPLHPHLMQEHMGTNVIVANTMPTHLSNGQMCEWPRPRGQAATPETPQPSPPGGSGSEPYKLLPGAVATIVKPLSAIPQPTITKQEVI", "assay": "protein-binding microarray", "conditions": "COS-7 nuclear extract on double-stranded Agilent 4x180k PBM; binding buffer, salt, pH and temperature not given; high values mean tight binding; double strand, one strand shown; sequences stand for … in …GCCTAGGGAGATTAGAGTATCGGTCGA", "values": [{"sequence": "GGAGGCACTCATGGTGTTTGCTTTGTGAAG", "binding signal (log2 normalized intensity)": 0.486}, {"sequence": "TATGATCTTTCATTCCTATTGTCCCATCTC", "binding signal (log2 normalized intensity)": 1.24}, {"sequence": "AACCAGAGAATCTCTCATTTCAAGGCTGGC", "binding signal (log2 normalized intensity)": -1.12}, {"sequence": "TCTTCCAGTTCATTTCTGTATCCCTGTTAT", "binding signal (log2 normalized intensity)": 1.96}, {"sequence": "ACGTCAGAACTGTCCTTTAACCTCCCTGCA", "binding signal (log2 normalized intensity)": 1.99}, {"sequence": "GGGACAGCACTGGCATGCAGCAGGGGAATG", "binding signal (log2 normalized intensity)": -1.05}, {"sequence": "CCACCCCCTCCACCCCTGCCTTTCATTCTC", "binding signal (log2 normalized intensity)": 4.45}, {"sequence": "GATGAGAAACTTATTGTGAACTGGAGCAAA", "binding signal (log2 normalized intensity)": -0.765}, {"sequence": "ATCCCTGCAGCCCACAGCCCGCTGTGCCTG", "binding signal (log2 normalized intensity)": -1.21}, {"sequence": "AAATTGCTCAGTGCCTTCTCTAATGACTGA", "binding signal (log2 normalized intensity)": -0.941}, {"sequence": "TGTCAGACAAACAGACTTCACACTAGAAGA", "binding signal (log2 normalized intensity)": -1.14}, {"sequence": "AGGCTTCTAGAAGAGGTTAAAGACCTTTGG", "binding signal (log2 normalized intensity)": 4.01}, {"sequence": "CTCCCTGCATTCCATTTCTGCCCCTTGCTC", "binding signal (log2 normalized intensity)": 3.66}, {"sequence": "ATAAAGCAGGGAGAGTTGCACCCAGGCCGT", "binding signal (log2 normalized intensity)": -1.19}, {"sequence": "ACAAGGGTACCAACAGGTCCAAGGTTCAGA", "binding signal (log2 normalized intensity)": 3.95}, {"sequence": "TCAAGGATGTTTATACAGCCTTGGAAGACA", "binding signal (log2 normalized intensity)": -0.976}, {"sequence": "CCATAGGCAGCTTCAGGATGAAGGCTGCTG", "binding signal (log2 normalized intensity)": -1.27}, {"sequence": "TCTTTCAGGGTGGGAAAGGAATGTAATGTA", "binding signal (log2 normalized intensity)": 1.43}, {"sequence": "ATCTTGGGTTAGGCCTTTAGAGGATTTACT", "binding signal (log2 normalized intensity)": -0.708}, {"sequence": "GAAGATCGCAGACTTTGGACTCTGCAAGGA", "binding signal (log2 normalized intensity)": 5.8}, {"sequence": "CTTTAGATTCTTACAGGCAATTGATAATGA", "binding signal (log2 normalized intensity)": 0.99}, {"sequence": "TTTTCTGCTGCATGCCACACATTGCTGCCA", "binding signal (log2 normalized intensity)": -1.06}, {"sequence": "CAGGCATTAACCCTTTAGTGCCTGGATCTT", "binding signal (log2 normalized intensity)": 0.932}, {"sequence": "TCGTCCAGTTACTGAAAGGGAACCCTAATC", "binding signal (log2 normalized intensity)": -0.95}, {"sequence": "GAGCAGGGAGCGAGACGCTGAGCTTCTGCG", "binding signal (log2 normalized intensity)": -1.21}, {"sequence": "GGACTTTGGTCTGCTGAGTCTCATGATTAG", "binding signal (log2 normalized intensity)": 4.48}, {"sequence": "GGCCTCCAGAAGGAATGCAGCCCTGCCACT", "binding signal (log2 normalized intensity)": -1.14}, {"sequence": "GGCATGCATATGAGTAATGTGAAGACTTCG", "binding signal (log2 normalized intensity)": 0.707}, {"sequence": "TTTGAACTGTGTTGCAAATTATTACTCCCA", "binding signal (log2 normalized intensity)": 1.03}, {"sequence": "CTTTGGCCAAATAATAGCATTGTAGTAATA", "binding signal (log2 normalized intensity)": 1.59}, {"sequence": "AGTTTCCCTTGATCAAAAACTGCCTAAATC", "binding signal (log2 normalized intensity)": -0.795}, {"sequence": "ATGTGTTTGCTTTTTACCATCTCCAACATG", "binding signal (log2 normalized intensity)": 0.607}, {"sequence": "GAGCAGTCCTGCACATGAATGATCAAAGGT", "binding signal (log2 normalized intensity)": 1.54}, {"sequence": "TAAATACTTCTCCTCTTATCTTCAGGTTTG", "binding signal (log2 normalized intensity)": 1.45}, {"sequence": "TACCGGCTAGACAAACAGCTTCTGTCCTAA", "binding signal (log2 normalized intensity)": -1.25}, {"sequence": "AGGGCAAAGGTCACCAGCTAAGCTGTTACT", "binding signal (log2 normalized intensity)": 5.12}, {"sequence": "ACAGTCCAGTGACTATCTGCTACTTAAGAT", "binding signal (log2 normalized intensity)": -0.769}, {"sequence": "GTGGGAGGTGAGGAAAACGGAGACAGAAAC", "binding signal (log2 normalized intensity)": -1.1}, {"sequence": "GGGGTGGGGACCAGTGGGGGGAAGCTCTGT", "binding signal (log2 normalized intensity)": -1.04}, {"sequence": "GGGAGCTCCCTCTGTTGGTGGCACAGGGAA", "binding signal (log2 normalized intensity)": -0.739}, {"sequence": "ATGGAGAGTGGAAGACTGCACCAAAATAAA", "binding signal (log2 normalized intensity)": -1.18}, {"sequence": "TCATCTGAACTCTGACCAACGCCTCCCTCC", "binding signal (log2 normalized intensity)": 2.23}, {"sequence": "TGGTGTGAACCAGGGTTAAGGTTTTGTAAC", "binding signal (log2 normalized intensity)": 1.72}, {"sequence": "AGCTTGGCCAAAGTACGCTCCACCCCTCAG", "binding signal (log2 normalized intensity)": 3.28}, {"sequence": "TAAGAGTGAACTCTGACCATGCCTATAAAT", "binding signal (log2 normalized intensity)": 1.4}, {"sequence": "GGTGATTGGTGAGTCTTAGGGAGGGGCCAG", "binding signal (log2 normalized intensity)": -1.07}, {"sequence": "ATCTCTCCTAGAGAAAGGGGCTTAGGGAGG", "binding signal (log2 normalized intensity)": -1.3}, {"sequence": "AGCAGGGCGTGGACTTCGCTCCGCCGCTAG", "binding signal (log2 normalized intensity)": 3.59}, {"sequence": "CCTGTGGGGGAGGTGCAGAGAGGGGCAGGG", "binding signal (log2 normalized intensity)": -0.725}, {"sequence": "TGACCACGGGGGCCGCTCTCCCTCCAGGCC", "binding signal (log2 normalized intensity)": -1.21}, {"sequence": "GTCAGATTTTATTTACACACAGGGAGATGG", "binding signal (log2 normalized intensity)": -0.199}, {"sequence": "AAAGTGCAACTACAAGGAGCAGCCTAGTAA", "binding signal (log2 normalized intensity)": -1.27}, {"sequence": "GAGTGGTGACTGAAGTCCAACCCTCCGTTT", "binding signal (log2 normalized intensity)": 1.06}, {"sequence": "TTTCCCTGCCAGTTCCATGTAATCCCATGC", "binding signal (log2 normalized intensity)": 0.376}, {"sequence": "GCCTTGCTTATCTGGGAGGGGGAGGTTTTG", "binding signal (log2 normalized intensity)": 0.199}, {"sequence": "AATAGTAAAGTATGTTTGTGCTGGTTACTA", "binding signal (log2 normalized intensity)": 0.471}, {"sequence": "GGTCGGGCGCGCGGGCCGGGAGGGGGACGC", "binding signal (log2 normalized intensity)": -1.1}, {"sequence": "AAAAGCAGCCATTAAGAAGCAAGTGTTTAA", "binding signal (log2 normalized intensity)": -0.6}, {"sequence": "GCACTATTATCCCCCTATCCCAAGACATCA", "binding signal (log2 normalized intensity)": 4.49}, {"sequence": "TTTGTCACTGCAAATGATGTCTCTCATTGG", "binding signal (log2 normalized intensity)": 1}, {"sequence": "CCAGCCCACTTACCACCCACAGAGGGGGTT", "binding signal (log2 normalized intensity)": -1.08}, {"sequence": "AATAAAGGAACTTACGAAGATAAATCAGAA", "binding signal (log2 normalized intensity)": -0.825}, {"sequence": "CCCATTAGAACAAAGATCAAAGCAGTATCA", "binding signal (log2 normalized intensity)": -1.08}, {"sequence": "AAGAAGAGCTCAGTCACAGCAGTGGACTTT", "binding signal (log2 normalized intensity)": 6.61}, {"sequence": "CAAGGTACAGAGAGTTTAAGTAACTTCTCA", "binding signal (log2 normalized intensity)": -1.16}, {"sequence": "TGAAGGTGAATTTCAAGAATCTAATCAGGC", "binding signal (log2 normalized intensity)": -1.08}, {"sequence": "GACTGGGTGAGGAAGGGTATGCATGGAATG", "binding signal (log2 normalized intensity)": 0.726}, {"sequence": "CGGTGTATGCTCTCAGTGCTAACACGTGGC", "binding signal (log2 normalized intensity)": 0.692}, {"sequence": "TTTGCCCTCAAGGAGTTTTAGATTAGGAGA", "binding signal (log2 normalized intensity)": -0.121}, {"sequence": "GCCTGAGCATCTTATCAGCAGGAGACCTGA", "binding signal (log2 normalized intensity)": -1.04}, {"sequence": "AGCATCTTATCAGCAGGAGACCTGAAACTA", "binding signal (log2 normalized intensity)": -0.954}, {"sequence": "CACTTTCCACTCTCTACTGATATGTCCTCC", "binding signal (log2 normalized intensity)": 1.93}, {"sequence": "GCTGCCATCCCACATTCCACAGACTCACTT", "binding signal (log2 normalized intensity)": -0.8}, {"sequence": "TTGAGTGGTTTACTGCGTCACAAGTCACAA", "binding signal (log2 normalized intensity)": -1.09}, {"sequence": "GTATTAACATGTAAATATGACCTTTGCTTT", "binding signal (log2 normalized intensity)": 6.44}, {"sequence": "GCAGATGGGCAGCACTGTGATTTGTTCAGG", "binding signal (log2 normalized intensity)": 0.439}, {"sequence": "AGAGCCGGGAAAGGCCGGAGGGCGGGGCGG", "binding signal (log2 normalized intensity)": -0.0652}, {"sequence": "AGAGGACAGAAGAAGGAAAAGGCCTGACCT", "binding signal (log2 normalized intensity)": -0.388}, {"sequence": "AGTGAACTCAAAGAAAAGTTATGTTGGGCA", "binding signal (log2 normalized intensity)": 1.17}, {"sequence": "ATTTTCTCACTCTAAAGGAAGGGATTATAA", "binding signal (log2 normalized intensity)": 0.856}, {"sequence": "TAACTTGAGTGTGCACCCTGGTCTCTCTTA", "binding signal (log2 normalized intensity)": 0.266}, {"sequence": "TTCTGTCTTTTTAATAGTGCATTATCAGTA", "binding signal (log2 normalized intensity)": 1.74}, {"sequence": "CTAGCCACAGGGGAAACACAGACTCCAAAG", "binding signal (log2 normalized intensity)": -1.06}, {"sequence": "CTACTTTTAAAACGCTCAAATAAGCCTTGC", "binding signal (log2 normalized intensity)": -1.11}, {"sequence": "GGACTGAACAGATATTGGCCAAAGGGCACA", "binding signal (log2 normalized intensity)": 2.95}, {"sequence": "GTCTATGTGTGCTTTCTTCATTAACTCTTG", "binding signal (log2 normalized intensity)": 1.03}, {"sequence": "TGCGGCTTCTCATACTACTGTACTTTGCTC", "binding signal (log2 normalized intensity)": 5.39}, {"sequence": "ATACTTTGCTCTCCAAATTGGGGCCAACAG", "binding signal (log2 normalized intensity)": 0.369}, {"sequence": "GAGCATTTCTCTCCTAAGCAGGACAGCAGA", "binding signal (log2 normalized intensity)": -1.06}, {"sequence": "TCAGCCCACAGGTCAATCCAGGTTGCTGCC", "binding signal (log2 normalized intensity)": -0.646}, {"sequence": "CAGCATCTTCACCGTAAAGCCACCCCTTTC", "binding signal (log2 normalized intensity)": 2.64}, {"sequence": "GAACAATGTCTAATGGTGGAATTTCAGTCA", "binding signal (log2 normalized intensity)": 0.935}, {"sequence": "ATTAGAGCACAATGTGGGGAGCACATGGCA", "binding signal (log2 normalized intensity)": -1.1}]}]}
